Our source for the cytotoxicity call and growth inhibition call values is the antibiotic and cytotoxicity screens of Wong et al. (2023).

The subject of one experiment is HSkMC. The experiment in a line: cytotoxicity call (relative viability < 0.9). Particulars: 10 µM.
In another experiment the test system is HepG2. The experiment is described as follows: cytotoxicity call (relative viability < 0.9). Particulars: 10 µM.
For another experiment, the system named is S. aureus RN4220. The experiment is described as follows: growth inhibition call (relative growth <= 0.2). Particulars: 50 µM.

The list shows a part of the results.

Turning to `CC(=O)OC1CC(C)(C)C(=C=C/C(C)=C/C=C/C(C)=C/C=C/C=C(C)/C=C/C=C(\C)C(=O)CC23OC2(C)CC(O)CC3(C)C)C(C)(O)C1` (stereo unspecified), the cytotoxicity call in the experiment with HSkMC and with HepG2 was “inactive” throughout. Further, in the experiment on S. aureus RN4220, the growth inhibition call was “inactive”.

For the compound `CNC(=O)c1c(O)c2ccccc2[nH]c1=O`, the cytotoxicity call with HSkMC and with HepG2 was “inactive” each time. The growth inhibition call in the experiment with S. aureus RN4220 is “inactive”.

In the case of `Cc1cc(C(=O)Nc2cccc3c2O[C@H](CN(C)Cc2ccc(C(=O)O)cc2)[C@@H](C)CN([C@H](C)CO)C3=O)n(C)n1`, the cytotoxicity call in the experiment on HSkMC and with HepG2 was “inactive” each time. For the same compound, in the experiment on S. aureus RN4220, the growth inhibition call is “inactive”.

Turning to `C[C@@H]1CN([C@H](C)CO)C(=O)Cc2cc(NC(=O)c3ccncc3)ccc2O[C@H]1CN(C)Cc1ccc2c(c1)OCO2`, the cytotoxicity call in the experiment on HSkMC and with HepG2 was “inactive” in each case. Moreover, in the experiment with S. aureus RN4220, the growth inhibition call was “inactive”.

Regarding `C[C@H]1CCCCO[C@@H](CN(C)C(=O)CCC(F)(F)F)[C@@H](C)CN([C@@H](C)CO)C(=O)c2cc(NS(=O)(=O)c3ccc(F)cc3)ccc2O1`, the cytotoxicity call in the experiment on HSkMC and with HepG2 was “inactive” each time. The growth inhibition call with S. aureus RN4220 was “inactive”.

With `C[C@H]1CN([C@@H](C)CO)C(=O)Cc2cc(NS(=O)(=O)c3ccc(F)cc3)ccc2O[C@@H]1CN(C)C(=O)Nc1cccc2ccccc12`, the cytotoxicity call in the experiment with HSkMC and with HepG2 was “inactive” throughout. Moreover, the growth inhibition call in the experiment on S. aureus RN4220 was “inactive”.

For the compound `COc1ccc(C(=O)Nc2ccc3c(c2)C(=O)N(C)[C@@H]2CC[C@H](CC(=O)NCC4CC4)O[C@@H]2CO3)cc1`, the cytotoxicity call in the experiment with HSkMC was “inactive”. The cytotoxicity call with HepG2 is “active”. The growth inhibition call in the experiment on S. aureus RN4220 was “inactive”.

As to `COc1cc(Nc2ncc(F)c(Nc3ccc4c(n3)N(COP(=O)(O)O)C(=O)C(C)(C)O4)n2)cc(OC)c1OC`, the cytotoxicity call in the experiment on HSkMC and in the experiment with HepG2 was “active” in each case. In addition, in the experiment on S. aureus RN4220, the growth inhibition call is “inactive”.

Take `C[C@H]1CN([C@@H](C)CO)C(=O)c2cccc(NC(=O)Nc3cccc4ccccc34)c2O[C@H]1CN(C)S(=O)(=O)c1ccccc1`: the cytotoxicity call in the experiment with HSkMC and in the experiment with HepG2 was “inactive” throughout. In addition, the growth inhibition call in the experiment with S. aureus RN4220 was “inactive”.

As for `CN1CCN(CCCN2c3ccccc3Sc3ccc(C(F)(F)F)cc32)CC1.Cl.Cl`, the cytotoxicity call in the experiment with HSkMC is “inactive”. Moreover, the cytotoxicity call in the experiment with HepG2 was “active”. In addition, the growth inhibition call with S. aureus RN4220 is “inactive”.

For `C[C@H](CO)N1C[C@H](C)[C@@H](CN(C)Cc2ccc(Oc3ccccc3)cc2)Oc2ncc(-c3cccnc3)cc2C1=O`, the cytotoxicity call in the experiment with HSkMC and with HepG2 was “inactive” throughout. Moreover, the growth inhibition call in the experiment on S. aureus RN4220 was “inactive”.

On to `Cn1cc(CN2CCO[C@]3(COCCN(S(C)(=O)=O)C3)C2)cn1`, for which the cytotoxicity call in the experiment with HSkMC and in the experiment on HepG2 was “inactive” in each case. Further, in the experiment on S. aureus RN4220, the growth inhibition call is “inactive”.

In the case of `COc1ccc(CN(C)C[C@H]2OCCCC[C@H](C)Oc3ccc(NS(=O)(=O)c4cccs4)cc3C(=O)N([C@H](C)CO)C[C@H]2C)cc1`, the cytotoxicity call in the experiment on HSkMC and in the experiment with HepG2 was “inactive” throughout. In the experiment with S. aureus RN4220, the growth inhibition call is “inactive”.

With `Cc1ccc(S(=O)(=O)Nc2ccc3c(c2)C(=O)N([C@@H](C)CO)C[C@H](C)[C@H](CN(C)S(=O)(=O)c2ccc(F)cc2)OCCCC[C@H](C)O3)cc1`, the cytotoxicity call in the experiment on HSkMC and in the experiment on HepG2 was “inactive” throughout. For the same compound, the growth inhibition call in the experiment with S. aureus RN4220 is “inactive”.

Consider `O=C(Nc1cccc2cccnc12)[C@H]1[C@@H](c2ccc(Br)cc2)CC(=O)N1C(=O)OCc1ccccc1`, for which the cytotoxicity call with HSkMC and with HepG2 was “inactive” throughout. For the same compound, in the experiment on S. aureus RN4220, the growth inhibition call is “inactive”.

With `C[C@@H]1CN([C@@H](C)CO)C(=O)Cc2cc(NC(=O)Cc3ccccc3)ccc2O[C@H]1CN(C)Cc1ccc(Cl)c(Cl)c1`, the cytotoxicity call with HSkMC and in the experiment with HepG2 was “inactive” in each case. For the same compound, the growth inhibition call in the experiment on S. aureus RN4220 was “inactive”.

Turning to `COc1ccc(S(=O)(=O)N(C)C[C@H]2OCCCC[C@H](C)Oc3ccc(NS(=O)(=O)c4cn(C)cn4)cc3C(=O)N([C@@H](C)CO)C[C@H]2C)cc1`, the cytotoxicity call in the experiment on HSkMC is “active”. Further, the cytotoxicity call with HepG2 is “inactive”. Moreover, in the experiment with S. aureus RN4220, the growth inhibition call is “inactive”.

On to `COc1cc(C)c2c(=O)c(-c3ccccc3)coc2c1`, for which the cytotoxicity call in the experiment on HSkMC and in the experiment on HepG2 was “inactive” in each case. The growth inhibition call in the experiment with S. aureus RN4220 was “inactive”.

For the compound `C[C@H]1CN([C@@H](C)CO)C(=O)Cc2cc(NC(=O)CCN3CCOCC3)ccc2O[C@@H]1CN(C)Cc1ccccc1`, the cytotoxicity call with HSkMC and with HepG2 was “inactive” in each case. The growth inhibition call in the experiment with S. aureus RN4220 is “inactive”.

Regarding `O=C(Nc1nn[nH]n1)C1CCCCC1`, the cytotoxicity call with HSkMC and in the experiment on HepG2 was “inactive” throughout. For the same compound, the growth inhibition call in the experiment with S. aureus RN4220 is “inactive”.

Turning to `Cc1ccc(S(=O)(=O)Nc2ccc3c(c2)C(=O)N([C@H](C)CO)C[C@H](C)[C@H](CN(C)C(=O)Nc2ccccc2)OCCCC[C@H](C)O3)cc1`, the cytotoxicity call in the experiment with HSkMC and with HepG2 was “inactive” throughout. Further, the growth inhibition call with S. aureus RN4220 is “inactive”.

For the compound `O=C(C[C@@H]1CC[C@H]2[C@@H](COC[C@@H](O)CN2C(=O)Nc2cccc(Cl)c2)O1)NCc1ccccc1F`, the cytotoxicity call in the experiment on HSkMC and in the experiment with HepG2 was “inactive” each time. In the experiment with S. aureus RN4220, the growth inhibition call was “inactive”.

With `C[C@@H]1CCCCO[C@@H](CN(C)C(=O)c2ccncc2)[C@@H](C)CN([C@H](C)CO)C(=O)c2cc(NS(=O)(=O)c3ccc(Cl)cc3)ccc2O1`, the cytotoxicity call with HSkMC and in the experiment on HepG2 was “inactive” each time. For the same compound, in the experiment on S. aureus RN4220, the growth inhibition call was “inactive”.

Regarding `N/C(=N/O)c1cnc2n(c1=O)CCS2`, the cytotoxicity call with HSkMC and in the experiment with HepG2 was “inactive” each time. Moreover, the growth inhibition call in the experiment on S. aureus RN4220 is “inactive”.

Take `COc1cc(O)ccc1C(C)=O`: the cytotoxicity call in the experiment on HSkMC (human skeletal muscle cells) and in the experiment on HepG2 was “inactive” each time. Moreover, the growth inhibition call in the experiment with S. aureus RN4220 was “inactive”.

`COc1ccc(CNC(=O)C[C@@H]2C[C@@H]3c4cc(NS(=O)(=O)c5ccc(F)cc5)ccc4O[C@@H]3[C@@H](CO)O2)cc1`: the cytotoxicity call with HSkMC and in the experiment with HepG2 was “inactive” throughout. The growth inhibition call with S. aureus RN4220 was “inactive”.

As to `C[C@@H]1CN([C@H](C)CO)C(=O)c2cc(NC(=O)Nc3ccc(F)cc3)ccc2O[C@@H](C)CCCCO[C@@H]1CN(C)S(=O)(=O)c1ccc(Cl)cc1`, the cytotoxicity call with HSkMC and in the experiment with HepG2 was “inactive” each time. In addition, in the experiment with S. aureus RN4220, the growth inhibition call was “inactive”.
